# Data published in PubChem BioAssay (Tox21).
# Inconclusive means that the source gave no clear call. Such entries were picked first, then a sample of the others. For part of these data: Potencies of inconclusive entries are left out as doubtful fits. Calls of active or inactive are those of the source. Calls follow the shape of the dose curve; as a rule, active = well fitted curve in the direction sought with a large enough effect in the repeat runs; inconclusive = weak or mixed curves; inactive = no such curve, though single readings can be large; an effect the other way counts as inactive or inconclusive.
# Experiments:
# [1] = A CellTox Green Cytotoxicity Assay to monitor cytotoxicity in HepG2 cells - 24 hour (AID 1224878); also: potency is read from the fitted curve at half-maximal effect; nearly all actives have a fitted effect of over 45% in size
# In short: (§1)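 HepG2 cells were seeded together with the CellTox Green dye at 600 cells/well, left 5 h at 37 C/5% CO2, then given compounds in DMSO. Fluorescence from dye bound to dead-cell DNA was read repeatedly over 40 h of treatment at 37 C.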
# [2] = A CellTox Green Cytotoxicity Assay to monitor cytotoxicity in HepG2 cells - 40 hour (AID 1224879); also: potency is read from the fitted curve at half-maximal effect; nearly all actives have a fitted effect of over 40% in size
# In short: as §1
# [3] = qHTS RealTime-Glo MT Cell Viability Assay in HEK293 cells - 0 hour (AID 1224880); also: top concentration of the series differs between compounds; nearly all actives have a fitted effect of over 45% in size
# In short: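 HEK293 cells mixed with RealTime-Glo reagents (NanoLuc plus cell-permeant prosubstrate) at 600 cells/well, preincubated 5 h at 37 C/5% CO2, then given 23 nL compound in DMSO. Nonlytic luminescence from viable cells was read at 0, 8, 16, 24, 32 and 40 h.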
# [4] = A CellTox Green Cytotoxicity Assay to monitor cytotoxicity in HEK293 cells - 32 hour (AID 1224881); also: nearly all actives have a fitted effect of over 40% in size
# In short: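 HEK293 cells premixed with CellTox Green dye were seeded at 600 cells/well and left 5 h at 37 C/5% CO2 before pin transfer of 23 nL compound in DMSO. Fluorescence from dye bound to dead-cell DNA was read during 40 h treatment.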
# [5] = A CellTox Green Cytotoxicity Assay to monitor cytotoxicity in HepG2 cells - 0 hour (AID 1224882); also: nearly all actives have a fitted effect of over 35% in size; also: potency is read from the fitted curve at half-maximal effect
# In short: as §1
# Tags tell the direction and shape of the fitted curve.
smiles,measurement,setting,value
CC(C)(C)c1cccc(O)c1,Potency,[1],"inconclusive [activator, single point]"
same,Potency,[2],"inconclusive [activator, single point]"
same,Potency,[3],inactive
same,Potency,[4],inactive
CNS(=O)(=O)Cc1ccc2[nH]cc(CCN(C)C)c2c1,Potency,[5],inactive
CCOc1ccc2ccccc2c1C(=O)N[C@@H]1C(=O)N2[C@@H]1SC(C)(C)[C@@H]2C(=O)O,Potency,[5],"inconclusive [activator, single point]"
